From US20240229098A1, “BIOLUMINOGENIC ASSAY FOR DRUG-RESISTANCE BACTERIA DETECTION” (priority 2021, published 2024) come the findings set out here.

Assay [1] concerns clinically isolated E. coli strain producing TEM-type β-lactamase (E. coli/TEM). The assay can be described thus: Bioluminescent detection of intact clinical isolate E. coli/TEM. Particulars: after an hour incubation, intact bacteria.
Another assay concerns E. coli/TEM. The assay can be described thus: Inhibitor test with E. coli/TEM and D-Bluco. The conditions noted are these: inhibitor 2 mg/mL, 37° C. 1 h pretreatment, D-Bluco 10 μM.

On to `CN(C)c1ccc(/N=N/c2ccc(C(=O)NCCCCCC(=O)NC3C(=O)N4C(C(=O)O)=C(COc5ccc6nc(C7=N[C@@H](C(=O)O)CS7)sc6c5)C[S+]([O-])C34)cc2)cc1` (stereo partly drawn) [D-Bluco, 3-(((2-((S)-4-carboxy-4,5-dihydrothiazol-2-yl)benzo[d]thiazol-6-yl)oxy)methyl)-7-(6-(4-((E)-(4-(dimethylamino)phenyl)diazenyl)benzamido)hexanamido)-8-oxo-5-thia-1-azabicyclo[4.2.0]oct-2-ene-2-carboxylic acid 5-oxide], for which the “concentration of clinically isolated E. coli/TEM detected” value in assay [1] is recorded as 10^6 cfu/mL.

As to `O=C(O)[C@H]1/C(=C/CO)O[C@@H]2CC(=O)N21` [clavulanate], the “bioluminescence signal of D-Bluco with E. coli/TEM-1 in the presence of inhibitor” value in the assay on E. coli/TEM was “abolished”.
